Source: PubChem BioAssay (NCI)
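Test compounds were applied to cells in 96-well plates for 48 hours at 5 doses. The concentration for 50% growth inhibition is given as GI50. TGI marks complete inhibition of growth.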

Test system: NCI-H322M lung
Assay: DTP human tumour cell line panel, 48 h

SMILES | GI50 | TGI
Cc1ccc(/C=C/c2n(Cc3ccc4ccccc4c3)c3ccccc3[n+]2Cc2ccc3ccccc3c2)cc1 | 1.29 µM | 2.55 µM
O=C(CSc1nc2ccccc2c(=O)n1-c1ccc(Cl)cc1)Nc1ccc(-c2nc3ccccc3[nH]2)cc1 | 3.72 µM | 15.1 µM
COc1ccc(C(=O)/C=C/c2cc(F)cc(C(F)(F)F)c2)cc1S(N)(=O)=O | 3.76 µM | 15.2 µM
O=C(c1ccc(Cl)cc1)c1ccc(OCCCN2CCN(c3ccncc3)CC2)cc1 | 7.05 µM | 20.3 µM
O=C(/C=C/c1ccccc1)c1nc2ccccc2n1Cc1ccc(F)cc1 | 3.88 µM | 15.1 µM
